The list shows a part of the results.
Experiments:
Assay in all cases: glycan array binding signal (z-score within array); higher = stronger binding
Details in all cases: glycan notation: IUPAC condensed, linker removed
[1] = target: Fuc(a1-3)[Gal3S(b1-4)]GlcNAc
In short: (§1)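 The binding signal is a Z-score computed within each array. Data were drawn from 3228 arrays in the Consortium for Functional Glycomics database, restricted to those with a known protein sequence. Scores were averaged over arrays of the same protein sequence at different concentrations or buffers, and over linkers, and negative values can be taken as non-binding.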

[2] = target: Fuc(a1-3)[Gal3S(b1-4)]GlcNAc6S
In short: as §1

[3] = target: Fuc(a1-3)[GalNAc(b1-4)]GlcNAc
In short: as §1

[4] = target: Fuc(a1-3)[GalNAc(b1-4)]GlcNAc6S
In short: as §1

Fuc(a1-4)GlcNAc = target: Fuc(a1-4)GlcNAc
In short: as §1

Fuc(b1-3)GlcNAc = target: Fuc(b1-3)GlcNAc
In short: as §1

Gal(a1-2)Gal = target: Gal(a1-2)Gal
In short: as §1

Gal(a1-3)Gal = target: Gal(a1-3)Gal
In short: as §1

Gal(a1-3)Gal(b1-3)GlcNAc = target: Gal(a1-3)Gal(b1-3)GlcNAc
In short: as §1

[5] = target: Gal(a1-3)Gal(b1-3)GlcNAc(b1-2)Man
In short: as §1

[6] = target: Gal(a1-3)Gal(b1-3)GlcNAc(b1-2)Man(a1-3)[Gal(a1-3)Gal(b1-3)GlcNAc(b1-2)Man(a1-6)]Man(b1-4)GlcNAc(b1-4)GlcNAc
In short: as §1

[7] = target: Gal(a1-3)Gal(b1-3)GlcNAc(b1-3)GalNAc
In short: as §1

[8] = target: Gal(a1-3)Gal(b1-3)GlcNAc(b1-6)GalNAc
In short: as §1

[9] = target: Gal(a1-3)Gal(b1-3)[Fuc(a1-4)]GlcNAc(b1-2)Man(a1-3)[Gal(a1-3)Gal(b1-3)[Fuc(a1-4)]GlcNAc(b1-2)Man(a1-6)]Man(b1-4)GlcNAc(b1-4)GlcNAc
In short: as §1

Gal(a1-3)Gal(b1-4)Glc = target: Gal(a1-3)Gal(b1-4)Glc
In short: as §1

Gal(a1-3)Gal(b1-4)GlcNAc = target: Gal(a1-3)Gal(b1-4)GlcNAc
In short: as §1

[10] = target: Gal(a1-3)Gal(b1-4)GlcNAc(b1-2)Man
In short: as §1

[11] = target: Gal(a1-3)Gal(b1-4)GlcNAc(b1-2)Man(a1-3)[Gal(a1-3)Gal(b1-4)GlcNAc(b1-2)Man(a1-6)]Man(b1-4)GlcNAc(b1-4)GlcNAc
In short: as §1

[12] = target: Gal(a1-3)Gal(b1-4)GlcNAc(b1-3)GalNAc
In short: as §1

[13] = target: Gal(a1-3)Gal(b1-4)GlcNAc(b1-6)GalNAc
In short: as §1

[14] = target: Gal(a1-3)Gal(b1-4)[Fuc(a1-3)]GlcNAc
In short: as §1

[15] = target: Gal(a1-3)Gal(b1-4)[Fuc(a1-3)]GlcNAc(b1-2)Man(a1-3)[Gal(a1-3)Gal(b1-4)[Fuc(a1-3)]GlcNAc(b1-2)Man(a1-6)]Man(b1-4)GlcNAc(b1-4)GlcNAc
In short: as §1

Gal(a1-3)GalNAc = target: Gal(a1-3)GalNAc
In short: as §1

[16] = target: Gal(a1-3)[Gal(a1-4)]Gal(b1-4)GlcNAc
In short: as §1

[17] = target: Gal(a1-4)Gal(b1-3)GlcNAc(b1-2)Man(a1-3)[Gal(a1-4)Gal(b1-3)GlcNAc(b1-2)Man(a1-6)]Man(b1-4)GlcNAc(b1-4)GlcNAc
In short: as §1

Gal(a1-4)Gal(b1-4)Glc = target: Gal(a1-4)Gal(b1-4)Glc
In short: as §1

Gal(a1-4)Gal(b1-4)GlcNAc = target: Gal(a1-4)Gal(b1-4)GlcNAc
In short: as §1

[18] = target: Gal(a1-4)Gal(b1-4)GlcNAc(b1-2)Man(a1-3)[Gal(a1-4)Gal(b1-4)GlcNAc(b1-2)Man(a1-6)]Man(b1-4)GlcNAc(b1-4)GlcNAc
In short: as §1

[19] = target: Gal(a1-4)Gal(b1-4)GlcNAc(b1-3)Gal(b1-4)Glc
In short: as §1

Gal(a1-4)GlcNAc = target: Gal(a1-4)GlcNAc
In short: as §1

Gal(a1-6)Glc = target: Gal(a1-6)Glc
In short: as §1

Gal(b1-2)Gal = target: Gal(b1-2)Gal
In short: as §1

Gal(b1-3)Gal = target: Gal(b1-3)Gal
In short: as §1

Gal(b1-3)Gal(b1-4)GlcNAc = target: Gal(b1-3)Gal(b1-4)GlcNAc
In short: as §1

Gal(b1-3)GalNAc = target: Gal(b1-3)GalNAc
In short: as §1

[20] = target: Gal(b1-3)GalNAc(a1-3)[Fuc(a1-2)]Gal(b1-4)Glc
In short: as §1

[21] = target: Gal(b1-3)GalNAc(a1-3)[Fuc(a1-2)]Gal(b1-4)GlcNAc
In short: as §1

Gal(b1-3)GalNAc(b1-3)Gal = target: Gal(b1-3)GalNAc(b1-3)Gal
In short: as §1

[22] = target: Gal(b1-3)GalNAc(b1-3)Gal(a1-4)Gal(b1-4)Glc
In short: as §1

[23] = target: Gal(b1-3)GalNAc(b1-4)Gal(b1-4)Glc
In short: as §1

[24] = target: Gal(b1-3)GalNAc(b1-4)[Neu5Ac(a2-3)]Gal(b1-4)Glc
In short: as §1

Gal(b1-3)GlcNAc = target: Gal(b1-3)GlcNAc
In short: as §1

[25] = target: Gal(b1-3)GlcNAc(a1-3)Gal(b1-4)GlcNAc
In short: as §1

[26] = target: Gal(b1-3)GlcNAc(a1-6)Gal(b1-4)GlcNAc
In short: as §1

Gal(b1-3)GlcNAc(b1-2)Man = target: Gal(b1-3)GlcNAc(b1-2)Man
In short: as §1

B1: InvD YPIII (Yersinia pseudotuberculosis), B1JSC0 (protein)
chain: MIKYFSFFKKPEPIVGILPNRQSHHILPTHIRRVAWGTLLLQLFIPLSVSFSPAIAAMKASKADTMVSYSSTEPYVLGSGETVAMVAKKYGITVDELKKINIYRTFSRPFTALTTGDEIDIPRKASPFSVDNNKDNRLSVENTLAGHAVAGATALSNGDVAKSGERMVRSAASNEFNNSAQQWLSQFGTARVQLNINDDFHLDGSAADVLIPLYDNEKSILFTQLGARNKDSRNTVNMGAGVRTFQGNWMYGANTFFDNDLTGKNRRIGVGAEAWTDYLKLSANNYFGITDWHQSRDFIDYNERPANGYDLRAEAYLPSYPQLGGKAMYEKYRGDDVALFGKDNRQKNPHAITAGVNYTPIPLVTIGAEHRAGKGGQNDSNINFQLNYRLGETWQSHIDPSAVAASRTLAGSRYDLVERNNHIVLDYQKQNLVRLSLPDSLAGDPFSQLSVTAQVTATHGLERIDWQSAELMAAGGVLKQTSKNGLEITLPEYQMNRTGGNSYILNAIAYDTQGNASSQASMLITVNAQKINIANSTLVAVPINIEANNSDTSVVTLTLKDDNNIPVTGQDVTFLSPLGTLSAMTDSGNGVYTATLTAGTVSGTTAVSSNINGSALDMTPATVTLNGNSGELSITHSMLVAAPVNIEANGSDTSVVTLTLRDSNNNPVTGQTVTFAGTLGTLGAVTEGSSGVYTATLTAGIMVGTSSITASVNSTALGVTPATVTLNGDSGNLSTTNSTLVAAPVNIEANSSDTSVVTLTLRDNNNNPVTGQTVVFTSTLGTLGNVTEQASGVYTATLTAGTVSGVASLSVSVGGNALGVTPATVTLNGDSGNLSTTNSTLVAAPVNIEANSSDTSVVTLTLRDNNNNPVTGQTVNFAGTLGTLGTVSEGSSGVYTTTLTAGTVAGVASLSVNVGGNALGVTPATVTLNGNSGNLSATNSTLVAAPVNIEANSSDTSVVTLTLRDNNNNPVTGQTVAFTSTLGTLGNVTEQASGVYTATLTAGTVSGVASLSVSVNSNALGVTPATVTLNGDSGNLSTTNSTLVAAPVNIEANSSDTSVVTLTLRDNNNNPVTGQTVAFTSTLGTLGNVTEQASGLYTATLTAGTVSGVASLSVNVGGNALGVTPATVTLNGDSGNLSATNSTLVAAPVNIEANSSDTSVVTLTLRDNNNNPVTGQTVAFTSTLGTLGNVTEQASGLYTATLTAGTVSGVASLSVNVGGTALGVTPATVTLNGDSGNLSTTNSTLVAAPVNIEANSSDTSVVTLTLRDNNNNPVTGQTVAFTSTLGTLGNVTEQASGLYTATLTAGTVSGVASLSVSVNSTALGVTPATVTLNGDSGNLSTTNSTLVAAPVNIEANSSDTSVVTLTLRDNNNNPVTGQTVAFTSTLGTLGNVTEQASGVYTATLTAGTVAGVASLSVNVGGNALGVTPATVTLNGDSGNLSTTNSTLVAAPVNIEANSSDTSVVTLTLRDNNNNPVTGQTVAFTSTLGTLGNVTEQASGVYTATLTAGTVSGVASLSVSVGSSALGVTPATVTLNGDSGNLSTTNSTLVAAPVNIEANNSDTSVVTLTLRDNNNNPVTGQTVAFTSTLGTLGNVTEQASGVYTATLTAGTVSGVASLSVSVNSNALGVTPATVTLNGDSGNLSTTNSTLVAAPVNIEANSSDTSVVTLTLRDNNNNPVTGQTVVFTSTLGTLGNVTEQASGLYTATLTAGTVSGVASLSVSVGGNALGVTGNITLAPGALDAARSILAVNKPSINADDRIGSTITFTAQDAQGNAITGLDIAFMTDLENSQIMTLVDHNDGTYTANINGTQTGIANIAVQSSGATIAGLAATMVTITPGAWNTTQATPVMTVALPITTCQSSSGVYKRYYIGIVTHELYDNYGNEISGILTYNLGAGRYTTVTSQNSSVSGSNGLTRRSNSPVSHFILTSDAYTSQAACYAERIANVNVTITVTAITDDFKTSAVNKVFILGTGSN
glycan array binding signal (z-score) [1]: -0.158
glycan array binding signal (z-score) [2]: 0.432
glycan array binding signal (z-score) [3]: 0.077
glycan array binding signal (z-score) [4]: -0.093
glycan array binding signal (z-score) (Fuc(a1-4)GlcNAc): -0.102
glycan array binding signal (z-score) (Fuc(b1-3)GlcNAc): -0.26
glycan array binding signal (z-score) (Gal(a1-2)Gal): -0.108
glycan array binding signal (z-score) (Gal(a1-3)Gal): -0.281
glycan array binding signal (z-score) (Gal(a1-3)Gal(b1-3)GlcNAc): -0.172
glycan array binding signal (z-score) [5]: -0.33
glycan array binding signal (z-score) [6]: 0.213
glycan array binding signal (z-score) [7]: -0.27
glycan array binding signal (z-score) [8]: -0.32
glycan array binding signal (z-score) [9]: -0.046
glycan array binding signal (z-score) (Gal(a1-3)Gal(b1-4)Glc): 0.115
glycan array binding signal (z-score) (Gal(a1-3)Gal(b1-4)GlcNAc): -0.19
glycan array binding signal (z-score) [10]: 0.03
glycan array binding signal (z-score) [11]: 0.611
glycan array binding signal (z-score) [12]: 0.084
glycan array binding signal (z-score) [13]: -0.261
glycan array binding signal (z-score) [14]: 0.07
glycan array binding signal (z-score) [15]: 1.03
glycan array binding signal (z-score) (Gal(a1-3)GalNAc): 0.115
glycan array binding signal (z-score) [16]: -0.213
glycan array binding signal (z-score) [17]: 0.015
glycan array binding signal (z-score) (Gal(a1-4)Gal(b1-4)Glc): 0.157
glycan array binding signal (z-score) (Gal(a1-4)Gal(b1-4)GlcNAc): -0.281
glycan array binding signal (z-score) [18]: -0.275
glycan array binding signal (z-score) [19]: -0.249
glycan array binding signal (z-score) (Gal(a1-4)GlcNAc): -0.392
glycan array binding signal (z-score) (Gal(a1-6)Glc): -0.338
glycan array binding signal (z-score) (Gal(b1-2)Gal): -0.163
glycan array binding signal (z-score) (Gal(b1-3)Gal): -0.347
glycan array binding signal (z-score) (Gal(b1-3)Gal(b1-4)GlcNAc): 0.093
glycan array binding signal (z-score) (Gal(b1-3)GalNAc): -0.065
glycan array binding signal (z-score) [20]: -0.354
glycan array binding signal (z-score) [21]: -0.102
glycan array binding signal (z-score) (Gal(b1-3)GalNAc(b1-3)Gal): -0.295
glycan array binding signal (z-score) [22]: 0.309
glycan array binding signal (z-score) [23]: 0.009
glycan array binding signal (z-score) [24]: 0.043
glycan array binding signal (z-score) (Gal(b1-3)GlcNAc): -0.127
glycan array binding signal (z-score) [25]: -0.29
glycan array binding signal (z-score) [26]: 0.117
glycan array binding signal (z-score) (Gal(b1-3)GlcNAc(b1-2)Man): 0.159
